From the RNAGym collection of RNA variant scans (doi:10.1073/pnas.2313332121) come the findings set out here.

This sample is rich in variants without activity.

B1: TPR 5TU (parent)
chain: GGAUCUUCUCGAUCUAACAAAAAAGACAAAUCUGCCACAAAGCUUGAGAGCAUCUUCGGAUGCAGAGGCGGCAGCCUUCGGUGGCGCGAUAGCGCCAACGUUCUCAACUAUGACACGCAAAACGCGUGCUCCGUUGAAUGGAGUUUAUCAUG

The variants in this data set derive from B1. Put plainly: polymerase ribozyme fitness, log enrichment relative to wild type (log ratio); higher = more active; in vitro selection for triplet polymerase activity. The essentials: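 Each subunit of a heterodimeric triplet polymerase ribozyme was represented by a PCR-built, transcribed mutant library that underwent triplicate single-round in vitro selection with frozen incubation at −7 °C. Extended constructs were recovered by gel excision, streptavidin-bead capture and RT-PCR, and Illumina sequencing of input and output libraries kept genotypes with ≥10 input reads and ≥1 read per output. Fitness is the logarithm of genotype enrichment relative to wild-type enrichment, from inverse-variance-weighted replicate averages, with a logarithm base of 2.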
With GGAUCUUCUCGAUCUAACAAAAAAGACAAUUGUGCCACAAAGCUUGAGAGCAUCGUCGGAUGCAGAGGCGGCAACCUUCGGUGGCGCGGUAGAGCCAACGUUCUCAACUAUGACACGCAAAACGCGUGCUCCUUUGAAUGGCGUUUAUCAUG, the “polymerase ribozyme fitness (log ratio)” value was at most -4.2.
Consider GGAUCUUCUCGAUCUAACAAAAAAGACAAUUCUGCCACACAGCUUGAGAGCAUCUUCGGCUGCAGAGGCGGCAGCCUUCGGUCGCGCGAUAGCGACAACGUUCUCAACUAUGACACGCAAAACGCGUGCUCCGUUGAAUGGAGUUUAUCAUG, for which the “polymerase ribozyme fitness (log ratio)” value is at most -4.2.
For GGAUCUUCUCGAUCUAACAAAAAAGACAAUUCUGCCACAAAGCUUGAGAGCAUCUUUGGAUGCAGAGGCGGCAGCCUUCGGUGGCGCGAUAUCGCCAACGUUCUCAACUAUGACACGCAAAACGCGUGCUCCGUUGUAUGGUGUUUAUCAUG, the “polymerase ribozyme fitness (log ratio)” value is at most -4.2.
Turning to GGAUCUUCUCGAUCUAACAAAAAAGACAAGUCUGCCACAAAGCUUGAGAGCAUCUUCGGAUGCAGAGGCGGCAGCCUUCGGUAGCGCGAUAGCGCCAACGUUCUCAACUAUGACACGCCAAACGCGUGCUCCGUUGAAUGGAGUUUAUCAUG, the “polymerase ribozyme fitness (log ratio)” value was at most -4.2.
For GGAUCUUCUCGAUCUAACAAAAAAGACAAGUCUGCCACAAAGCUAGAGAGCAUCUUCGGAUGCAGAGUCGGCAGCCCUGGGUGGCGCGAUAGCGCCAACGUUCUGAACUAUGACACGCAAAACGCGUGCUCCGUUGAAUGGAGUUUAUCAUG the value was at most -4.2; for GGAUCUUCUCGAUCUAACAAAAAAGACAAUUCUGCCACAAAGCUUGAGAGCAUCUUCGGAUGCAGGGGCGGCAGCCUUCGGUGGCGCGAUAGCGCCAACGUUCUCAACUAUGACUCGCAAAACGCGUGCUCCGUUGAAUGGAAUUUAUCAUG, at most -4.2; for GGAUCUUCUCGAUCUAACAAAAAAGACAAGUCUGCCACAAAGCCUGAGAGCAUCUUCGGAUGCAGAGGCGGCAGCCUUCGGUGGCGCCAUAGCGCCAACGUUCUAAACUAUGACACGCAAAACGCGUGCUCCGUUGAAUGGAGUUUAUCAUG, at most -4.2.
GGAUCUUCUCGAUCUAACAAAAAAGACAAGUCUGCCACAAAGCUUGAGAGCAUCUUCGGAUGCAGAGGCGGCAGCCUUCGGUGGCGCGAUAGCGCCAACGUUCUCAACUAUGACACGCAAAACGCGUGCUCCGUUGAAUGCAGUUUAUCAUG: the “polymerase ribozyme fitness (log ratio)” value is -3.51.
Consider GGAUCUUCUCGAUCUAACAAAAAAGACAAUUCUGCCACAAAGCUUGAGAGCAUAUUCGGAUGCAGAGGCGGCAGCCUUCGGUGGCGCGAUAGCGCCUACGUUCUCAACUAUGACAUUCAAAACGCGUGCUCCGUUGAAUGGAGUUUAUCAUG, for which the “polymerase ribozyme fitness (log ratio)” value was at most -4.2.
For GGAUCUUCUCGAUCUAACAAAAAAGACAAGUCUGCCACAAAGCAUGAGAGCAACUACGGAUGCAGAGGCGGCAGCCUUCGGUGGCGCGUUAGCCCCAACGUUCUUAACUAUGACACGCAAAAUGCGUGCUCCGUUUAAUGGAGUUUAUCAUG the value was at most -4.2; for GGAUCUUCUCGAUCUAACAAAAAAGACAAGUCUGCCACAAAGCUUGAGAGCAUCUACGGAUGCAGAGGCGGCAGCCUUCUGUGGCGCGAUAGCGCAAACGUUCUUAACUAUGACACGCAAAACGCGUGCUCCGUUGAAUGGAUUUUAUCAUG, at most -4.2.
For GGAUCUUCUCGAUCUAACAAAAAAGACAAUUCUGCCACAAAGCUUGAGAGCAUCUUCGGAUGCAGAGGCGGCAGCCUUCGGUGGCGUGAUAGGGCCAACGUUCGCAACUAUGACACGCAAAACGCGUGCUCCGUUGAAUGGAGUUUAUCAUG the value was at most -4.2; for GGAUCUUCUCGAUCUAACAAAAAAGACAAUUCUGCCACAAAGCUUGAGAGCUUCUUCGGAUGCAGAGGCGGCAGCCUUCGGUGGCGCGAUAGAGCCAACGUUCUCAACUAUGACACGCAAAACGCGUGCUCCGUUGAAUGGAGUUUAUCAUG, at most -4.2.
Take GGAUCUUCUCGAUCUAACAAAAAAGACAAUUCUGCCACAAAGCUUGAGAGCAUCUUCGGAUGCAGAGGCGGCAGCAUUCGGUGGCGCGAUAGCGCCAACGUUCUCAACUAUGACACGCAAAACGCGUGCUCCGUUGAAUGGAGUUUAUCAUG: the “polymerase ribozyme fitness (log ratio)” value is -3.82.
With GGAUCUUCUCGAUCUAACAAAAAAGACAAUUCUGCCACAAUGCUUGAGAGCGUCUUCGGAAGCAGAGGCGGCAGCCUUCGGUGGUGCGAUAGCGCCUACGUUCUCAACUAUGACACGCAAAACGCAUGCUCCGUUGAAUGGAGUUUAUCAUG, the “polymerase ribozyme fitness (log ratio)” value is at most -4.2.
GGAUCUUCUCGAUCUAACAAAAAAGACAAGUCAGCCACAAAGCUUGAGAGCAUCAUCGGAUGCAGAGGCGGCAGCCUUCGGUGGCGCGAUCGCGCCAACGUUCUCAACUAUGACACGCAAAACGCGUGCUCUGUUGAAUGGUGUUUAUCAUG: the “polymerase ribozyme fitness (log ratio)” value is at most -4.2.
With GGAUCUUCUCGAUCUAACAAAAAAGACAAUUCUGCCACAAAGCUUGAGAGCAUAUUCGGAUGCAGAGGCGGCAGCAUUCGGUGGCGGGAUAACGCCAACGUUCUCAACUAUGACACGCAAAACGCGUGCUCCGUUGAAUGGACUUUAUCAUG, the “polymerase ribozyme fitness (log ratio)” value is at most -4.2.
In the case of GGAUCUUCUCGAUCUAACAAAAAAGACAAUUGUUCCACAAAGCUUGAGAGCAUCUUCGGAUGCAGAGGCGGCAGCCUUCGAUGGCGCGAUAGAGCCAACGUUCUCAACUAUGACACGCAAAACGCGUGCUCCGUUCAAUGGAGUUUAUCAUG, the “polymerase ribozyme fitness (log ratio)” value was at most -4.2.
The result for GGAUCUUCUCGAUCUAACAAAAAAGACAAUUCUGCCACAAAGCUUGAGAGAUUCUUAGGAUGCAGAGGCGGCAGCCUUCGGUGGCGCGAUAGCGCCCACGUUUUCAACUAUGACACGCAGAACGCGUGCUCCGUUGAAUGGAGAUUAUCAUG reads at most -4.2.
